Data from US20250214977A1, “STAT6 INHIBITORS AND USES THEREOF” (Kymera Therapeutics, Inc., priority 2024, published 2025).
pIC50: −log10 of the molar value.

Molecular target: T1, biotinylated truncated STAT6 (123-632)-avi (Homo sapiens, UniProt P42226)
T1 sequence (P42226 123-632 limits assumed): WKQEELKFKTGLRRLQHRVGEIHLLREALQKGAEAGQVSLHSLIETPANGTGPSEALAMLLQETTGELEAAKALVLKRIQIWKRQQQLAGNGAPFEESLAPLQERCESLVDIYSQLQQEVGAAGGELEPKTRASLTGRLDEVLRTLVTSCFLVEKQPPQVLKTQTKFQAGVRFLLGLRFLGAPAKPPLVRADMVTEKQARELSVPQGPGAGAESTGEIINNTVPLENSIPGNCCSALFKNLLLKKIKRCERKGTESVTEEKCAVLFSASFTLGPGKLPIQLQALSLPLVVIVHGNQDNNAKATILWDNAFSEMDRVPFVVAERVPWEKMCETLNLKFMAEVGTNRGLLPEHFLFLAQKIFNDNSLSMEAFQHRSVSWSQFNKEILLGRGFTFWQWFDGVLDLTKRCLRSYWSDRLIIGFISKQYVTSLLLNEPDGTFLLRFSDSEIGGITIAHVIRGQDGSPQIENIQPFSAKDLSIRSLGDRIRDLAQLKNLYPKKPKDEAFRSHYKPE
Assay: Homogenous Time-Resolved Fluorescence (HTRF) binding assay
Details: 0.15 nM biotinylated truncated STAT6 (123-632)-avi, 20 nM fluorescein-labeled probe

CCOC(=O)CC(=O)N1CCC=C(c2cc3cc(C(=O)N4CCN(c5ncc(F)cc5OC)CC4)cc(-c4ccc(C)nc4CC)c3n2CC2CC2)C1 [Example I-1173]
pIC50 (30 minutes at room temperature): 6.00 to 7.00

CCn1nccc1-c1cc(C2=CCCN(C(C)=O)C2)c(F)c2[nH]c(C(=O)N3Cc4cnn(CC)c4C3)cc12 [Example I-1176]
pIC50 (30 minutes at room temperature): > 7.00

CN(C)C(=O)c1cc2cc(C3=CCCN(C(=O)CCn4ccnn4)C3)cc(CN3CCCCC3)c2o1 [Example I-1178]
pIC50 (30 minutes at room temperature): 6.00 to 7.00

CN(C)C(=O)c1cc2cc(C3=CCCN(C(=O)CCn4ccnn4)C3)cc(CN3CCNCC3)c2o1 [Example I-1179]
pIC50 (30 minutes at room temperature): > 7.00

CN(C)C(=O)c1cc2cc(C3=CCCN(C(=O)CCn4ccnn4)C3)cc(CN3CC(N)C3)c2o1 [Example I-1180]
pIC50 (30 minutes at room temperature): > 7.00

COc1ccccc1-c1cc(C2=CCCN(C(=O)CCn3ccnn3)C2)c(F)c2[nH]c(C(=O)N3CCN(C4CC5CCC4C5)CC3)cc12 (stereo not shown) [Example I-1181]
pIC50 (30 minutes at room temperature): > 7.00

COc1ccccc1-c1cc(C2=CCCN(C(=O)CCn3ccnn3)C2)c(F)c2[nH]c(C(=O)N3CCN(CC4(C)COC4)CC3)cc12 [Example I-1183]
pIC50 (30 minutes at room temperature): > 7.00

COc1ccccc1-c1cc(C2=CCCN(C(=O)CCn3ccnn3)C2)c(F)c2[nH]c(C(=O)N3CCN(CC4CCCO4)CC3)cc12 (stereo not shown) [Example I-1184]
pIC50 (30 minutes at room temperature): > 7.00

COc1ccccc1-c1cc(C2=CCCN(C(=O)CCn3ccnn3)C2)c(F)c2[nH]c(C(=O)N3CCN(Cc4nc(C)cs4)CC3)cc12 [Example I-1185]
pIC50 (30 minutes at room temperature): > 7.00

CC(=O)N1CCN(c2cc(C3=CCCN(C(=O)CCn4ccnn4)C3)cc3cc(C(=O)N(C)C)oc23)CC1 [Example I-1186]
pIC50 (30 minutes at room temperature): > 7.00

CN(C)C(=O)c1cc2ccc(C3CCCN(C(=O)CCn4ccnn4)C3)cc2[nH]1 (stereo not shown) [Example I-1188]
pIC50 (30 minutes at room temperature): 6.00 to 7.00

CN(C)C(=O)c1cc2ccc([C@H]3CCCN(C(=O)CCn4ccnn4)C3)cc2[nH]1 [Example I-1189]
pIC50 (30 minutes at room temperature): 6.00 to 7.00

COc1ccccc1-c1cc(C2=CCCN(C(=O)C(C)C)C2)c(F)c2cc(C(=O)N(C)C)oc12 [Example I-1190]
pIC50 (30 minutes at room temperature): 6.00 to 7.00

CN(C)C(=O)c1cc2c(F)c(C3=CCCN(C(=O)C4Cc5ccccc5CN4C=O)C3)ccc2o1 (stereo not shown) [Example I-1192]
pIC50 (30 minutes at room temperature): 5.00 to 6.00

COc1ccccc1-c1cc(C2CCCN(C(=O)CCn3ccnn3)C2)c(F)c2[nH]c(C(=O)N(C)C)cc12 (stereo not shown) [Example I-1193]
pIC50 (30 minutes at room temperature): > 7.00

COc1ccccc1-c1cc([C@H]2CCCN(C(=O)CCn3ccnn3)C2)c(F)c2[nH]c(C(=O)N(C)C)cc12 [Example I-1195]
pIC50 (30 minutes at room temperature): < 4.00

COc1ccc(C)cc1-c1cc(C2=CCCN(C(=O)C3Cc4ccccc4CN3C=O)C2)cc2cc(C(=O)N(C)C)oc12 (stereo not shown) [Example I-1197]
pIC50 (30 minutes at room temperature): 6.00 to 7.00

COc1ccccc1-c1cc(C2=CCCN(C(=O)CCn3ccnn3)C2)c(F)c2[nH]c(C(=O)N3CCN(Cc4cccn(C)c4=O)CC3)cc12 [Example I-1198]
pIC50 (30 minutes at room temperature): > 7.00

COc1ccccc1-c1cc(C2=CCCN(C(=O)CCn3ccnn3)C2)c(F)c2[nH]c(C(=O)N3CCN(CC(=O)NC(C)C)CC3)cc12 [Example I-1200]
pIC50 (30 minutes at room temperature): > 7.00

COc1ccccc1-c1cc(C2=CCCN(C(=O)CCn3ccnn3)C2)c(F)c2[nH]c(C(=O)N3CCN(Cc4noc(C)n4)CC3)cc12 [Example I-1201]
pIC50 (30 minutes at room temperature): > 7.00

COc1ccccc1-c1cc(C2=CCCN(C(=O)CCn3ccnn3)C2)c(F)c2[nH]c(C(=O)N3CCN(Cc4ccccc4)CC3)cc12 [Example I-1202]
pIC50 (30 minutes at room temperature): > 7.00

COc1cc(F)cnc1N1CCN(C(=O)c2cc(-c3cccnc3C3CC3)c3[nH]c(C4CCCN(C(=O)CCn5ccnn5)C4)cc3c2)CC1 (stereo not shown) [Example I-1204]
pIC50 (30 minutes at room temperature): 5.00 to 6.00

CCc1ccncc1-c1cc(C2=CCCC(C(=O)O)C2)c(F)c2[nH]c(C(=O)N3CCN(c4ncc(F)cc4OC)CC3)cc12 (stereo not shown) [Example I-1205]
pIC50 (30 minutes at room temperature): 5.00 to 6.00

COc1ccccc1-c1cc(C2=CCCN(C(=O)CCn3ccnn3)C2)c(F)c2[nH]c(C(=O)N3CCN(c4cccn5cnnc45)CC3)cc12 [Example I-1206]
pIC50 (30 minutes at room temperature): > 7.00

CCC1CN(C)CC1c1cc(C2=CCCN(C(=O)CCn3ccnn3)C2)c(F)c2[nH]c(C(=O)N3CCN(c4ncc(F)cc4OC)CC3)cc12 (stereo not shown) [Example I-1208, 1-[5-[4-(4-ethyl-1-methyl-pyrrolidin-3-yl)-7-fluoro-2-[4-(5-fluoro-3-methoxy-2-pyridyl)piperazine-1-carbonyl]-1H-indol-6-yl]-3,6-dihydro-2H-pyridin-1-yl]-3-(triazol-1-yl)propan-1-one]
pIC50 (30 minutes at room temperature): > 7.00

CCn1ncc2c1CN(C(=O)c1cc3c([C@H]4CCN(C)C4)cc(C4=CCCN(C(=O)CCn5ccnn5)C4)c(F)c3[nH]1)C2 [Example I-1210]
pIC50 (30 minutes at room temperature): > 7.00

CCc1nc(C)ccc1-c1cc(C(=O)N2CCN(c3ncc(F)cc3OC)CC2)cc2cc(C3=CCCN(C(=O)CCn4ccnn4)C3)sc12 [Example I-1211]
pIC50 (30 minutes at room temperature): > 7.00

CCc1nc(C)ccc1-c1cc(C(=O)N2Cc3cnn(CC)c3C2)cc2sc(C3=CCCN(C(=O)CCn4ccnn4)C3)cc12 [Example I-1214]
pIC50 (30 minutes at room temperature): > 7.00

CCc1nc(C)ccc1-c1cc(C(=O)N2Cc3cnn(CC)c3C2)cc2sc(C3=CCCN(C(=O)CCn4ccnn4)C3)nc12 [Example I-1215]
pIC50 (30 minutes at room temperature): > 7.00

CCc1nc(C)ccc1-c1cc(C(=O)N2CCN(c3ncc(F)cc3OC)CC2)cc2c(F)c(C3=CCCN(C(=O)CC(=O)O)C3)n(CC3CC3)c12 [Example I-1216]
pIC50 (30 minutes at room temperature): < 4.00

CCc1nc(C)ccc1-c1cc(C(=O)N2CCN(c3ncc(F)cc3OC)CC2)cc2c(F)c(C3=CCCN(C(C)=O)C3)n(CC3CC3)c12 [Example I-1217]
pIC50 (30 minutes at room temperature): > 7.00

CCc1nc(C)ccc1-c1cc(C(=O)N2Cc3cnn(CC)c3C2)cc2c(F)c(C3=CCCN(C(C)=O)C3)n(CC3CC3)c12 [Example I-1218]
pIC50 (30 minutes at room temperature): > 7.00

CCc1nc(C)ccc1-c1cc(C(=O)N2Cc3cnn(CC)c3C2)cc2c(F)c(C3=CCCN(C(=O)CCn4ccnn4)C3)n(CC3CC3)c12 [Example I-1219]
pIC50 (30 minutes room temperature): < 4.00

CCn1ccnc1-c1cc(C2=CCCN(C(=O)CCn3ccnn3)C2)c(F)c2[nH]c(C(=O)N3Cc4cnn(CC)c4C3)cc12 [Example I-1220]
pIC50 (30 minutes room temperature): > 7.00

CCc1ccc(-c2cc(C(=O)N3CCN(c4ncc(F)cc4OC)CC3)cc3cc(C4=CCCN(C(=O)CC(=O)O)C4)n(CC(C)C)c23)c(C)n1 [Example I-1222]
pIC50 (30 minutes room temperature): > 7.00

CCc1ccc(-c2cc(C(=O)N3Cc4cnn(C)c4C3)cc3cc(C4=CCCN(C(=O)CC(=O)O)C4)n(CC(C)C)c23)c(C)n1 [Example I-1223]
pIC50 (30 minutes room temperature): > 7.00

CCc1nc(C)ccc1-c1cc(C(=O)N2CCN(C3CC3)CC2)cc2cc(C3=CCCN(C(=O)CCn4ccnn4)C3)n(CC3CC3)c12 [Example I-1227]
pIC50 (30 minutes room temperature): > 7.00

CCc1nc(C)ccc1-c1cc(C(=O)N2CCN(c3ncc(F)cc3OC)CC2)cc2cc(C3=CCCN(C(=O)C(=O)O)C3)n(CC3CC3)c12 [Example I-1228, 2-(3-(1-(cyclopropylmethyl)-7-(2-ethyl-6-methylpyridin-3-yl)-5-(4-(5-fluoro-3-methoxypyridin-2-yl)piperazine-1-carbonyl)-1H-indol-2-yl)-5,6-dihydropyridin-1(2H)-yl)-2-oxoacetic acid]
pIC50 (30 minutes room temperature): > 7.00

CCc1nc(C)ccc1-c1cc(C(=O)N2Cc3cnn(C)c3C2)cc2c(F)c(C3=CCCN(C(=O)CCn4ccnn4)C3)n(CC3CC3)c12 [Example I-1229]
pIC50 (30 minutes room temperature): < 4.00

CN(C)C(=O)c1cc2ccc(C3=CCCN(C(=O)CCn4cc(C(N)=O)cn4)C3)c(F)c2[nH]1 [Example I-1230]
pIC50 (30 minutes room temperature): 5.00 to 6.00

CCc1ccncc1-c1cc(C2=CCCN(C(=O)CCn3ccc(C(N)=O)n3)C2)c(F)c2[nH]c(C(=O)N(C)C)cc12 [Example I-1231]
pIC50 (30 minutes room temperature): > 7.00

CN(C)C(=O)c1cc2ccc(C3=CCCN(C(=O)CCc4cccc(C(N)=O)c4)C3)c(F)c2[nH]1 [Example I-1232]
pIC50 (30 minutes room temperature): 6.00 to 7.00

CN(C)C(=O)c1cc2ccc(C3=CCCN(C(=O)CCc4ccc(C(N)=O)cc4)C3)c(F)c2[nH]1 [Example I-1233]
pIC50 (30 minutes room temperature): > 7.00

CN(C)C(=O)c1cc2ccc(C3=CCCN(C(=O)Cc4cccc(C(N)=O)c4)C3)c(F)c2[nH]1 [Example I-1234]
pIC50 (30 minutes room temperature): 6.00 to 7.00

CCc1cc(C)ncc1-c1cc(C2=CCCN(C(=O)CCn3ccnn3)C2)nc2[nH]c(C(=O)N3CCN(c4ncc(F)cc4OC)CC3)cc12 [Example I-1237]
pIC50 (30 minutes room temperature): 6.00 to 7.00

CCc1cc(C)ncc1-c1cc(C2=CCCN(C(=O)CCc3nnn[nH]3)C2)c(F)c2[nH]c(C(=O)N3CCN(c4ncc(F)cc4OC)CC3)cc12 [Example I-1238]
pIC50 (30 minutes room temperature): 5.00 to 6.00

CC(C)C1C=C(c2ccc3cc(C(=O)N(C)C)[nH]c3c2F)CN(C(=O)CCn2ccc(C(N)=O)n2)C1 (stereo not shown) [Example I-1247]
pIC50 (30 minutes room temperature): 6.00 to 7.00

CN(C)C(=O)c1cc2ccc(C3=CCCN(C(=O)Cn4cc(C(N)=O)cn4)C3)c(F)c2[nH]1 [Example I-1251]
pIC50 (30 minutes room temperature): 4.00 to 5.00

CN(C)C(=O)c1cc2ccc(C3=CCCC(C(=O)Nc4cccc(C(N)=O)c4)C3)c(F)c2[nH]1 (stereo not shown) [Example I-1252]
pIC50 (30 minutes room temperature): 4.00 to 5.00
